Laboratory results published in paper PMC12136788.
This is one part of the list.

T1: UNK ZnF1-3 (human, UniProt Q9C0B0 31-174)
T1 sequence: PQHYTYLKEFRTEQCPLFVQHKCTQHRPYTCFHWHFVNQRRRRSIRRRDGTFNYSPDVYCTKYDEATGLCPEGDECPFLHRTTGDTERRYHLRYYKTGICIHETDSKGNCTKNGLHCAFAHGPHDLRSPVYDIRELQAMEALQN

B1: chr3:148802587:148802588:-_ENSG00000071794_ENST00000310053|hu_mus|hu_hu_hu_mus_False|58_58 (ssRNA)
RNA: GGGAGUUCUACAGUCCGACGAUCUCCAACAACUUGUCCUCUCAUAGUUCCAAAUAAAACCAAAUCUUGCUCUUCAUCACUAGUUAGGAAGUCAUCUGGAGGAAUAAUGUCUUGGAAUUCAAAAUGUGGCAAGAAAGUUGAGUACAACAGAGGAUUGAGCAUCA
B2: chr9:95013113:95013114:-_ENSG00000196305_ENST00000443024|hu_hu|hu_hu_hu_mus_False|1_28 (ssRNA)
RNA: GGGAGUUCUACAGUCCGACGAUCCUCAGUCAGAAAGGGCGUGUAAGGGGCCAUCAGUCUGCACAGAGAAAGCAGGACACUGAACAGUGUCUCCAGAGCCAUGACACAAUCCUCCAUCCCACUCUCACCCUUUAACCUUCUGCGCAACAGAGGAUUGAGCAUCA
B3: chr4:77932910:77932911:+_ENSG00000138758_ENST00000541121|hu_mus|FALSE|FALSE (ssRNA)
RNA: GGGAGUUCUACAGUCCGACGAUCUUUAAUUUUCAAUUCUUCUUGCAAGUAGGCCUCAAACUGGGCGUCAAUGUAUUCCACUAUAGGCUUAUAGCUGUCAUCUUUAUUAAUCUGGUCUCCAAAUCCCACUGUGUCAACGAUUGUCAACAGAGGAUUGAGCAUCA
B4: chr4:13604834:13604835:-_ENSG00000038219_ENST00000040738|hu_hu|FALSE|FALSE (ssRNA)
RNA: GGGAGUUCUACAGUCCGACGAUCACUCAGUAACAUUCUAUGAACAGUUUCAGAAUCUAUAUUCACUUCAGUAGUUCCUCUAUGAAUGGGUUCUUUCUCCCCAGGGUUCAUUUUGGACACAGCACUUUGUAUAUGCAUUUUCUUCAACAGAGGAUUGAGCAUCA
B5: chr7:54825262:54825263:-_ENSG00000132432_ENST00000352861|hu_hu|hu_hu_hu_mus_False|8_78 (ssRNA)
RNA: GGGAGUUCUACAGUCCGACGAUCCUGCCGGCUGGGCUCCACAAACUGCAUUACCUGCAUGACUGCCGUUGGAUGGCGGAUUGAGAGCGUAGAGACACGUAGCUCAGGAGAGAACCGAGCCCAACGGCACCGGAACCUGGCAACCAACAGAGGAUUGAGCAUCA
B6: chr1:63797873:63797874:+_ENSMUSG00000025962_ENSMUST00000128621|mus_hu|motif|central (ssRNA)
RNA: GGGAGUUCUACAGUCCGACGAUCUCCUCUGGGGUGGCUUGAACCCAAACAAUAAGCAGAUCUGGAAACACAUAGCACAGCGGCUCUUUGAAUAUCUGUAGCAGAAGUUGUAUCCACAUCAGAAAGUGGUAGCACUUGAUUCCUCAACAGAGGAUUGAGCAUCA
B7: chr7:97319096:97319097:+_ENSMUSG00000039361_ENSMUST00000049537|mus_hu|motif|central (ssRNA)
RNA: GGGAGUUCUACAGUCCGACGAUCAUCUUUGAACAGGAGCAUGAAGGCAGCAUUUAUUACCCCAUUUGUAAGUUCAUUGCGGUUAACAUUAAAAUCAAGAAGUGCAUCCAUCUGAUUCUGAAUAAUUGGUACAGUUUUUAGGAGCAACAGAGGAUUGAGCAUCA
B8: chr4:175160266:175160267:-_ENSG00000164117_ENST00000503293|hu_hu|FALSE|FALSE (ssRNA)
RNA: GGGAGUUCUACAGUCCGACGAUCAGGGGCAUGGAUAUGACGAAAAAAUUCUCUCAGUGCAUUUGGCAAGAACUGAUUUCUAAAAUUAUGCAAUGUUACAAGGUCAUCCAAGACAUCUCUCCUUUCAUCAAGAUAGAUUCUCAGCAACAGAGGAUUGAGCAUCA
B9: chr16:94690093:94690094:+_ENSMUSG00000040785_ENSMUST00000117648|mus_hu|mus_mus_mus_hu_True|48_88 (ssRNA)
RNA: GGGAGUUCUACAGUCCGACGAUCGGGCUGGGAUGACGGACACACAGAUCUUCCCAGAGGGGGAAAAAGUCUUAGUCGAUACUAAUUUAAAAAGUAUAAUGAUUUUUGAAAAUCAGAUUACAUCUAUAAAAGAUGAAAAGCAAACAACAGAGGAUUGAGCAUCA
B10: chrX:71549762:71549763:+_ENSMUSG00000019087_ENSMUST00000019231|mus_mus|mus_mus_mus_hu_False|38_98 (ssRNA)
RNA: GGGAGUUCUACAGUCCGACGAUCAAACCCGUGUACUCACUCUUAACAGCACAACAUCACCAGAAAACGAUAACGACAGCCAAGCAGGACAGACAGUCAAGUAGUCUUUCCACACUCCCAAACUCAGGGAGCCCUAUAACCUUACAACAGAGGAUUGAGCAUCA
B11: chr6:38652254:38652255:-_ENSG00000124767_ENST00000373365|hu_hu|hu_hu_hu_mus_False|8_8 (ssRNA)
RNA: GGGAGUUCUACAGUCCGACGAUCCGAGAACUUCAUAGCAGGGAAGUCAAGCUUCUGCAGGAGGGUCAGUCCAAGAACCCUCGUAUAAAAAUCCAGGGACUUCUUAGGAUCCUUAAUUCUUAGCAUCGUCUGCUGCAGUAGAAACAACAGAGGAUUGAGCAUCA
B12: chr14:55655841:55655842:-_ENSG00000126787_ENST00000247191|hu_hu|FALSE|FALSE (ssRNA)
RNA: GGGAGUUCUACAGUCCGACGAUCUUCCUUAUGUCUAUUUUCUUUCUGAGACAGUGAUUUCCUAUGAGCAAUUUUAGUUCUAAUCAUUUCAGUACUUAUAUCCUUCCUGUGUCGACUGGCAAAAUGUGAUGAAGACAUCCUGAGCAACAGAGGAUUGAGCAUCA
B13: chr19:8913615:8913616:-_ENSMUSG00000071658_ENSMUST00000096259|mus_hu|mus_mus_mus_hu_False|38_98 (ssRNA)
RNA: GGGAGUUCUACAGUCCGACGAUCAGGGUACCAAAACACCCUGCCUCAAAUGGGUGCCCCACCCAGUAGGGAGUUGCAGCUGAAAGUAUCUGAUGCACUGACAGUUACUAUACGAAAGGAGGCCCCUGGGGAGGGCCAGGCCAGCAACAGAGGAUUGAGCAUCA
B14: chr13:50590013:50590014:+_ENSG00000204977_ENST00000378182|hu_hu|FALSE|FALSE (ssRNA)
RNA: GGGAGUUCUACAGUCCGACGAUCAGGUUGUUCUGUAAACACUGUAAUCCUCCCUGUUAGCAUCUCAAUUGUUUUGCUGCAAGAGCCAAACACCCUGAAAAAAGCUUGAGUGUUCCGGCUUAGGAAAUGUACCUCCACAAGAGCCAACAGAGGAUUGAGCAUCA
B15: chr2:219093484:219093485:+_ENSG00000163466_ENST00000315717|hu_mus|FALSE|FALSE (ssRNA)
RNA: GGGAGUUCUACAGUCCGACGAUCGAAUUUCAAAGAAAUACUGACCAUCACUUUUGUUUUGUCUCCAUUAGGAUUUGAAAUAUGAUAAAGGACGCCAUCAAAAUCUGCAAAUGUUACUUCUACAGCUUCUGGUUUGUUUCCGGCCAACAGAGGAUUGAGCAUCA
B16: chr2:5814250:5814251:-_ENSMUSG00000025816_ENSMUST00000102981|mus_hu|mus_mus_mus_hu_True|18_58 (ssRNA)
RNA: GGGAGUUCUACAGUCCGACGAUCUUCCUUUCCGGUUUCUGAAUUUCUGGUAGAACUGCACAGAAUGGUUUGAUAACUUCUAAAAACUUGAUGCCCAUGGCUGCUGCUGGGGAGGCCCGGCGGGCACCCGCGGCCUCGGCGCUGCAACAGAGGAUUGAGCAUCA
B17: 5264949_5266305_1826_CDS_ENSG00000029725_ENST00000262477|human|control|control (ssRNA)
RNA: GGGAGUUCUACAGUCCGACGAUCUCUCGUUUCAGCCUCCUGAAUCUGAAUUCCUUGUAACUGUUUUUCGUAAUUGGAACACAUAUCACAACGUCUACCAAGUUUAUUUCCAGCAUUAUGUACCUCUUUCUGCAAGAGAUUCCACAACAGAGGAUUGAGCAUCA
B18: chr11:4040516:4040517:+_ENSMUSG00000003581_ENSMUST00000003677|mus_hu|FALSE|FALSE (ssRNA)
RNA: GGGAGUUCUACAGUCCGACGAUCCUGAGGACCGGGGUGCAGGCAGGAAGGGUCCAUCCCCAUGUGCAGAGUCCAGCUGGGCAGCUAAUCAUCGGAGUAGCGGUUCCCCAGGACGUUGAAUUUGCACAGUGGGCAGGUCUGCUGCAACAGAGGAUUGAGCAUCA
B19: 56161274_56161766_1203_CDS_ENSG00000095015_ENST00000399503|human|control|control (ssRNA)
RNA: GGGAGUUCUACAGUCCGACGAUCCAAUGUAUGAGAAUUUGACAUGCGUGAAACAAACUUCUGGAUGGUGUUACGAGAUGGAGCUUUGAUCCUUGAGCUACGCCUACUGUGAUAUUUCUGGAACAAACUCUCAACCUCAAAAUUCAACAGAGGAUUGAGCAUCA
B20: chr1:39494564:39494565:+_ENSG00000168653_ENST00000372967|hu_hu|hu_hu_hu_mus_True|1_28 (ssRNA)
RNA: GGGAGUUCUACAGUCCGACGAUCAUGCAUUCGCCUCAUCGUUUUGUACCGAAGCAAGCACUCUUCGAAGUCAUCGAACUCUAUCUUGCACUCCUUUUUCGCCCGGGUAUAACCGAUCCCGUGUGCACACUCUAUCCAUUCUUUCAACAGAGGAUUGAGCAUCA
B21: 98507940_98508150_816_CDS_ENSG00000196367_ENST00000456197|human|control|control (ssRNA)
RNA: GGGAGUUCUACAGUCCGACGAUCUGGGAAUGAACUGAGCUUCACCAGGUGCUUUGCAUGAUGUUAUGCCCCACGUGAUUGUCUUGACACCACACACCAAGGUUUUGACCAAACUUCGACAGUCUGUGACUUGGAAUGUCUGCUCAACAGAGGAUUGAGCAUCA
B22: 118633944_118635965_963_CDS_ENSG00000110367_ENST00000264018|human|control|control (ssRNA)
RNA: GGGAGUUCUACAGUCCGACGAUCAUGAUCAACCUUUGCUACUCCUUUCUUAAUAAGAUCCAGGAUUCUCCCAGGGGUAGCAAUCACCACGUGCACUGUAUCAUCAAGCCUCAUUAUGUCAUCUCGUAAAUUGGUUCCUCCUGUCAACAGAGGAUUGAGCAUCA

Target: T1, UNK ZnF1-3
Assay: nsRBNS (natural sequence RNA bind-n-seq); RBNS binding buffer (assumed for nsRBNS): 25 mM Tris pH 7.5, 150 mM KCl, 3 mM MgCl2, 0.01% Triton X-100, 500 ug/ml BSA, 20 U/ml SUPERase-In, 4 C; UNK is unkempt and MSI1 is Musashi-1; names of the RNAs are library labels; protein concentration not given here; high values mean tight binding

Binder | binding signal [enrichment R]
B1 | 1.33
B2 | 0.952
B3 | 0.625
B4 | 0.794
B5 | 1.28
B6 | 1.29
B7 | 1.54
B8 | 1.14
B9 | 1.28
B10 | 1.46
B11 | 0.931
B12 | 0.815
B13 | 1.39
B14 | 1.22
B15 | 1.54
B16 | 0.897
B17 | 0.677
B18 | 1.09
B19 | 1.28
B20 | 0.59
B21 | 0.827
B22 | 0.941
